Assay results as given in PMC9009768.
No constants are given. Whether binding was seen depends on the method and setting. In cells and extracts the contact can be indirect. Some binding calls cover weakened binding; strength is not graded here.

By UniProt entry, the sequences of proteins in these tests, tags left out. Where a name states a change or a piece, a line headed by the entry shows the natural chain unless it says otherwise. Chains listed by the source or under a name are the forms on record and can include a tag or linker. Residues count along the entry.
UniProt O75925: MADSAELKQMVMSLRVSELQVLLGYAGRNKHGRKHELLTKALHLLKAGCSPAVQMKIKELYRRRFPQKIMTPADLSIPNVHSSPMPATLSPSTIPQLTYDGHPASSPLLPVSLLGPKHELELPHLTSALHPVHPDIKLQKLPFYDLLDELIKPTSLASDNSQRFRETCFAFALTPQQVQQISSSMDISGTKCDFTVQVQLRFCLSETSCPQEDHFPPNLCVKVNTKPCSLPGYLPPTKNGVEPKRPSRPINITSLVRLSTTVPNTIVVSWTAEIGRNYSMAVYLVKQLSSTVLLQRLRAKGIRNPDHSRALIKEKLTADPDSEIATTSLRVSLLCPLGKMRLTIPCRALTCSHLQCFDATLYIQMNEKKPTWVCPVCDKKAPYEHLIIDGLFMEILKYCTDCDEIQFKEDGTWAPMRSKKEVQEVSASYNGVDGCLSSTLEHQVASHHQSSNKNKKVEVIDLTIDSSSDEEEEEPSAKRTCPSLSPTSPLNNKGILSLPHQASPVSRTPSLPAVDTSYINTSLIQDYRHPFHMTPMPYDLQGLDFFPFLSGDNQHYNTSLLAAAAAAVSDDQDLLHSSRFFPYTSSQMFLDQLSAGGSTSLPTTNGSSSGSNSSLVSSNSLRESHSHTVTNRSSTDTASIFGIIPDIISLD
UniProt P15682: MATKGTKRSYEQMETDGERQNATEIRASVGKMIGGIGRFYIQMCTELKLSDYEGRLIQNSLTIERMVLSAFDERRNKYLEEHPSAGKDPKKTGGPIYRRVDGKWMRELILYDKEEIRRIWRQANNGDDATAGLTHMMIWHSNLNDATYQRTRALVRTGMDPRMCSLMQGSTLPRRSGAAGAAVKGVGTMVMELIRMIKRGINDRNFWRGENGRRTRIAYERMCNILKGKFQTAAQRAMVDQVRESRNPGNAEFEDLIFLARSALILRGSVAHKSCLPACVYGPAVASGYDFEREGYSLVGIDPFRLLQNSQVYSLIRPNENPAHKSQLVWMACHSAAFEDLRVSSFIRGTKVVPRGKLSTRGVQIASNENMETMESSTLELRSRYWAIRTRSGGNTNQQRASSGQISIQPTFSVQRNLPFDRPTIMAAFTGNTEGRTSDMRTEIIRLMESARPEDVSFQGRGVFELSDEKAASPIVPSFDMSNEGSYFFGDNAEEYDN
UniProt P03427: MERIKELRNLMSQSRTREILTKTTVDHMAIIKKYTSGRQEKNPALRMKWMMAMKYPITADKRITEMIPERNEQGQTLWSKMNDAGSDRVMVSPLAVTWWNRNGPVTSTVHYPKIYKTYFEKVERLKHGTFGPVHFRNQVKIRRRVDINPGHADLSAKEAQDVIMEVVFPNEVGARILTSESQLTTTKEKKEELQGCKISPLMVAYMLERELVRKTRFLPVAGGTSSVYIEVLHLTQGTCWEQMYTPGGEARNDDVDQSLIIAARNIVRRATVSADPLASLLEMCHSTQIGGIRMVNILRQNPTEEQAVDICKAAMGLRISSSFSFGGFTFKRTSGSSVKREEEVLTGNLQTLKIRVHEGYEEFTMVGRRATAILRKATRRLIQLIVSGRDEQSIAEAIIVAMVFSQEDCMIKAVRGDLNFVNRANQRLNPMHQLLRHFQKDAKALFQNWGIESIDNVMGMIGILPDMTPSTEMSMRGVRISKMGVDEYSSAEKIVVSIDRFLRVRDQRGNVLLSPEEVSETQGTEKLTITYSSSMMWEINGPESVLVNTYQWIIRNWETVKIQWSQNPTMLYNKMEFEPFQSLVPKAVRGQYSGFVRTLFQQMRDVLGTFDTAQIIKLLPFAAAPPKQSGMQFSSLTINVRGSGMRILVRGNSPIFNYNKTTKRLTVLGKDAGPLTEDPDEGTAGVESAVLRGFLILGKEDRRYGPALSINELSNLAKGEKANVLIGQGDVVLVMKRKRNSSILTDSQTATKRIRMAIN
UniProt P03430: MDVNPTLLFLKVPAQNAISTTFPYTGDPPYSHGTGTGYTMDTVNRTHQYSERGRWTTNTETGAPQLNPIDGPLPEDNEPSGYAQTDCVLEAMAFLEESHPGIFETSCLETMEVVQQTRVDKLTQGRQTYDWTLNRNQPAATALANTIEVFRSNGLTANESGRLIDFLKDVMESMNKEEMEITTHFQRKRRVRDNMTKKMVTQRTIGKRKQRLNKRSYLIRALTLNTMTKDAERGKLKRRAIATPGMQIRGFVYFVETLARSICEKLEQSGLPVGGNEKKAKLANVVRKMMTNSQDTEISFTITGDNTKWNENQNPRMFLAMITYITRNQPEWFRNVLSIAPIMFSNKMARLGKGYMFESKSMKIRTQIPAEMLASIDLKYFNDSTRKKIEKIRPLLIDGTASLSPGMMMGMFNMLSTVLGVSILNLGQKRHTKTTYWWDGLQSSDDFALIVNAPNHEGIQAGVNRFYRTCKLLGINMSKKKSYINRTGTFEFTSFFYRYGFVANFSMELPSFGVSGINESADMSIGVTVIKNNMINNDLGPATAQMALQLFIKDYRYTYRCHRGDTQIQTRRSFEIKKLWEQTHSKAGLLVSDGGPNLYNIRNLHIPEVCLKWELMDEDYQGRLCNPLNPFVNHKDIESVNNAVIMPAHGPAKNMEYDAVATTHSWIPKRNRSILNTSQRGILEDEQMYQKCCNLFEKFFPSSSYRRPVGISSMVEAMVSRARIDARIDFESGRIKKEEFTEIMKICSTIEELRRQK
UniProt P03470: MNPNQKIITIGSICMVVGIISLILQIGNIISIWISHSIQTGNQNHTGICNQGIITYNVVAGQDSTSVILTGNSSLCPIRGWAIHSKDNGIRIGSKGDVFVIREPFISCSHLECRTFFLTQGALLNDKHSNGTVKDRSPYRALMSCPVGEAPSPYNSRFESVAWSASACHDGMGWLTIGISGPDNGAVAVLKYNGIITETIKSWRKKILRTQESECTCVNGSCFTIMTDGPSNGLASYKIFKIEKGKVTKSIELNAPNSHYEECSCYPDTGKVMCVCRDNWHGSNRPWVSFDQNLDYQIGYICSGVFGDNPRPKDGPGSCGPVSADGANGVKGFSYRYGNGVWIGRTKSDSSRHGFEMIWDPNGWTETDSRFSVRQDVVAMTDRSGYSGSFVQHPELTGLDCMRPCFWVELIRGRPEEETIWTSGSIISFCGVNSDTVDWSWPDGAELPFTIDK
UniProt P03454, residues 18-565: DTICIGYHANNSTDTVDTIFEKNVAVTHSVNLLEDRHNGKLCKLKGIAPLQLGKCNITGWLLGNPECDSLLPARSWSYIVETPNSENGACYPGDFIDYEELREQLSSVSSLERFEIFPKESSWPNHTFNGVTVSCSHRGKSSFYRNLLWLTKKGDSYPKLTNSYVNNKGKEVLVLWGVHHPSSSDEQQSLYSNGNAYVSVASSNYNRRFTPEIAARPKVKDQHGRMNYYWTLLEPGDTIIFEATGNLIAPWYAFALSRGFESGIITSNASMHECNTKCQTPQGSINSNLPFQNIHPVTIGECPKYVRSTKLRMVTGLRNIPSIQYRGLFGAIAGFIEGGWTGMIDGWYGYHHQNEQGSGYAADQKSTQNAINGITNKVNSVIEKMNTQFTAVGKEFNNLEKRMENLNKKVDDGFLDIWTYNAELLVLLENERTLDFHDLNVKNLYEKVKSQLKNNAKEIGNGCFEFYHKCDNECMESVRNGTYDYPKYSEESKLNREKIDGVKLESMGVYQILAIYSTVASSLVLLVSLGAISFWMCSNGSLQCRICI
UniProt P05777: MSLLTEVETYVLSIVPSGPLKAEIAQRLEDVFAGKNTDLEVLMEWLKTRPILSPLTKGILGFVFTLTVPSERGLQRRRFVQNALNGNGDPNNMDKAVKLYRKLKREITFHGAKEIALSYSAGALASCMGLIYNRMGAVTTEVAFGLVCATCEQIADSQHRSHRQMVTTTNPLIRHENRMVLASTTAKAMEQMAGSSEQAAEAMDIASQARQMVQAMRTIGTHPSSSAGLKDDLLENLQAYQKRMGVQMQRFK
Flag-PIASxα (O75928-2, form named): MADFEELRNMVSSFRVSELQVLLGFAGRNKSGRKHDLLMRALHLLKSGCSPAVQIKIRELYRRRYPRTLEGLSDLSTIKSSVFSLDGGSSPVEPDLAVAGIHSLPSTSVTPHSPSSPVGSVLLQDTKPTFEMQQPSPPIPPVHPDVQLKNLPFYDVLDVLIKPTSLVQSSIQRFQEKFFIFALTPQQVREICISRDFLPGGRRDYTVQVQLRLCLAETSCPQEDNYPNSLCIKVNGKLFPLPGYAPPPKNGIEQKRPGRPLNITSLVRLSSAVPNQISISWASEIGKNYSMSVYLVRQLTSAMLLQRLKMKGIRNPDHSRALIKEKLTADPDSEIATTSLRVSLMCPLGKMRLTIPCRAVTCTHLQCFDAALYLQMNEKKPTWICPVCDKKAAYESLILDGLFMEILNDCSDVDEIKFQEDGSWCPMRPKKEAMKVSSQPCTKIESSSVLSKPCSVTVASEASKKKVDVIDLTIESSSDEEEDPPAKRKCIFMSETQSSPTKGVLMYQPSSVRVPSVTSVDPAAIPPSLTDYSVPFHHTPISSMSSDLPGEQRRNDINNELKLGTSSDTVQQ

How the values were obtained:
Experiment in all cases: co-IP
[1] = target: Myc-tagged PIAS1 (protein inhibitor of activated STAT 1) (human) (UniProt O75925)
[2] = target: V5-tagged NP of A/WSN/33 (WSN, H1N1) virus (influenza A virus A/WSN/33 (H1N1)) (UniProt P15682)
[3] = target: IAV PB2 in WSN (H1N1) virus-infected cells (influenza A virus A/WSN/33 (H1N1)) (UniProt P03427)
[4] = target: IAV NP in WSN (H1N1) virus-infected cells (influenza A virus A/WSN/33 (H1N1)) (UniProt P15682)
[5] = target: IAV PB1 in WSN (H1N1) virus-infected cells (influenza A virus A/WSN/33 (H1N1)) (UniProt P03430)

NA of WSN (H1N1) virus (from UniProt P03470 1-453)
binding [1]: no binding

HA of WSN (H1N1) virus (from UniProt P03454)
binding [1]: no binding

WSNPB1 (polymerase basic protein 1 of WSN (H1N1) virus) (from UniProt P03430 1-757)
binding [1]: binds

M1 of WSN (H1N1) virus (from UniProt P05777 1-252)
binding [1]: no binding

WSNPB2 (polymerase basic protein 2 of WSN (H1N1) virus) (from UniProt P03427 1-759)
binding [1]: binds

Flag-PIASxα (from UniProt O75928-2 1-572)
binding [2]: binds

V5-tagged NP of A/WSN/33 (WSN, H1N1) virus (from UniProt P15682 1-498)
binding [1]: binds

Myc-tagged PIAS1 (protein inhibitor of activated STAT 1) (from UniProt O75925 1-651)
binding [3]: binds | binding [2]: binds | binding [4]: binds | binding [5]: binds
